Assay results taken from PubChem BioAssay AID360 (National Center for Advancing Translational Sciences (NCATS), 2006).
Out of some 48,000 compounds screened, about 550 (1.1%) were called active. About 4% were inconclusive and are not listed. Rule as the data show it: active = potency below about 15 µM; inconclusive = mostly about 16 µM to 33 µM; inactive = weaker than that. The list shows a part of the results.

These molecules were tested against Lysosomal acid glucosylceramidase (Homo sapiens) (UniProt P04062) (assay: Glucocerebrosidase). Conditions: purified enzyme, resorufin glucoside fluorescence (screen aimed at inhibitors), 20 min.
Outline: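 Wild-type enzyme at 0.2 nM final in 50mM citric acid/KH2PO4, 10mM sodium taurocholate, 0.01% tween-20, pH 5.9, with resorufin beta-D-glucopyranoside at 30 uM final. Compounds titrated, 20 min at RT, red fluorescence read; AC50 from titration.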
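Also: the screen sought inhibitors.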
Potency is read from the fitted curve at half-maximal effect.

Sequence of UniProt P04062 (P04062 whole entry, looked up): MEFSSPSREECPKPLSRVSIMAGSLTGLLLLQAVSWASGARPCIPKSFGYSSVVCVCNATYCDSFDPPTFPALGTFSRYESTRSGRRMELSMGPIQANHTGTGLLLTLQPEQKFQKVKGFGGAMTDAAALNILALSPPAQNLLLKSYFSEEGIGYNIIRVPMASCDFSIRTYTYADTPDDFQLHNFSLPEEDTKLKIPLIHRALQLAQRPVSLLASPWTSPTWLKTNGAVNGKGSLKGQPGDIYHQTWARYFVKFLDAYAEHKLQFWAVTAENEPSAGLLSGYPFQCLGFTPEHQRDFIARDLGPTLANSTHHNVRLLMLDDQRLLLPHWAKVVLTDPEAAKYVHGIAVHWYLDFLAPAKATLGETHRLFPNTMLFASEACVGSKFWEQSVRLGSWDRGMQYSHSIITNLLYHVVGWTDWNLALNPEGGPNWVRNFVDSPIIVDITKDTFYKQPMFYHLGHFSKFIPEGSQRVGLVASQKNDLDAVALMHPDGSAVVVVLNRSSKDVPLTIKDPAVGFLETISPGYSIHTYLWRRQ

Potency, inactive:
Fc1ccc(-n2cnnn2)c(F)c1 > 76.9 µM
c1ccc2c(c1)CCN(c1nc3cc4c(cc3s1)OCO4)C2 > 76.9 µM
Cn1c(=O)c2c(SCc3cccc(C(F)(F)F)c3)nc(-c3ccco3)nc2n(C)c1=O > 76.9 µM
Cc1ccc(N2C(=O)CSC2c2cccnc2)cc1F (stereo not given) > 76.9 µM
COC(=O)c1ccc(C)c(NC(=O)CN(c2ccc3c(c2)OCO3)S(C)(=O)=O)c1 > 76.9 µM
COc1cccc(N(C(=O)CNC(=O)c2ccco2)C(C(=O)NC2CCCC2)c2ccncc2)c1 (stereo not given) > 76.9 µM
COCCn1cnnc1SCC(=O)c1ccc(S(=O)(=O)N2CCCC2)cc1 > 76.9 µM
O=C(O)CCC(=O)Nc1ccccc1N1CCOCC1 > 76.9 µM
CCn1c(SCC(=O)NCc2cccs2)nnc1-c1cccs1 > 76.9 µM
O=c1c2cc(N3CCOCC3)ccc2[nH]c(=S)n1CCCN1CCCCC1 > 76.9 µM
O=C1c2ccccc2NC2CCCCCN12 (stereo not given) > 76.9 µM
O=C(CS(=O)(=O)Cc1ccccc1)N1CCN(c2cccc(C(F)(F)F)c2)CC1 > 76.9 µM
COc1ccc(C2CC(C(F)(F)F)n3ncc(C(=O)NCc4cccnc4)c3N2)cc1OC (stereo not given) > 76.9 µM
CCC(CCC(=O)Nc1cccc(C(=O)O)c1)C(=O)O (stereo not given) > 76.9 µM
Nc1cc(N)nc(SCC(=O)N2CCCCC2)n1 > 76.9 µM
CCOC(=O)CSc1nnc(CNC(=O)c2cccc(C)c2)n1-c1ccccc1OC > 76.9 µM
Cc1cc(C(F)(F)F)n2ncc(-c3ccccc3)c2n1 > 76.9 µM
CCC(C)c1ccc(NC(=O)C2CCCN(c3ncccn3)C2)cc1 (stereo not given) > 76.9 µM
COc1ccc(C(CC(=O)O)NC(=O)Cc2ccccc2)cc1 (stereo not given) > 76.9 µM
CCOC(=O)c1c(-c2ccc(C)o2)csc1NC(=O)COC(=O)c1cccs1 > 76.9 µM
Cc1ccc(SCCNC(=O)C(C)C)cc1 > 76.9 µM
COc1ccc(OC)c(S(=O)(=O)N2CCN(C34CC5CC(CC(C5)C3)C4)CC2)c1 > 76.9 µM
O=C(Cn1[nH]c(=O)c2ccccc2c1=O)NC1CCN(Cc2ccccc2)CC1 > 76.9 µM
COc1ccccc1NC(=O)CSc1nnc(-c2ccncc2)o1 > 76.9 µM
CCOC(=O)C1CCCN(C(=O)Cc2ccc(OC)c(OC)c2)C1 (stereo not given) > 76.9 µM
